Experimental data published in the supplement of paper PMC4166925.
± gives the standard deviation of the averaged measurements. Over roughly 33,000 sequences, “E-score (dimensionless, -0.5 to 0.5)” has its median near -0.049; the highest 2% begin near 0.37. The list shows a part of the results.

What follows are sequences tested on T1, PmTbr T-box DNA-binding domain (GST fusion) (assay: PBM E-score of 8-mer (E-score (dimensionless, -0.5 to 0.5)); Tbr is Tbrain of the sea star Patiria miniata (Pm) or the sea urchin Strongylocentrotus purpuratus (Sp); higher = stronger binding preference; most listed sequences are background and not binding sites). Conditions: the construct has about 5 more residues each side.
T1 sequence: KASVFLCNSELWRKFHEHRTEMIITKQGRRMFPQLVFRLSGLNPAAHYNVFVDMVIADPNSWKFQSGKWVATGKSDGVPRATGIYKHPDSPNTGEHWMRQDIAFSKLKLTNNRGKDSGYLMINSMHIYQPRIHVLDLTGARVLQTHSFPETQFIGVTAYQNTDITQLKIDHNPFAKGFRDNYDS
In short: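 Each ungapped 8-mer received an enrichment E-score from the Universal PBM Analysis Suite, averaged over duplicate arrays. The proteins were Tbr T-box DNA-binding domains, covering the whole T-box plus about five flanking residues, fused to GST and expressed in BL21 E. coli at 20 °C before glutathione affinity purification. Universal Agilent oligonucleotide arrays were made double-stranded by primer extension and incubated with 200 nM protein in PBS (pH 7.5). The arrays were then scanned and quantified, and every 8-mer was scored from probe intensities.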

Sequence | PBM E-score of 8-mer
CCACGCCC | 6.5e-05 ± 0.0061
ACTTGTCT | 0.14 ± 0.017
AGACGGGA | 0.0086 ± 0.0017
ATTCTCCA | 0.012 ± 0.038
CTGCCGAC | 0.118 ± 0.069
CCCCGGAA | -0.119 ± 0.011
CAACCTGG | 0.0279 ± 0.013
ACATAAAA | 0.0836 ± 0.13
AAATCAGA | -0.231 ± 0.049
ATCTTTCG | -0.0201 ± 0.0048
AACAGTGG | 0.0244 ± 0.0038
CCTACCCC | -0.152 ± 0.039
GATAGTAC | -0.0971 ± 0.036
CAGGCACA | 0.108 ± 0.086
CTAGATGA | -0.212 ± 0.017
AGAGGTGC | 0.411 ± 0.0084
GAGGTTTA | -0.0468 ± 0.025
GTAATAAC | -0.151 ± 0.064
GTGCTGGA | 0.0191 ± 0.074
ATGCCGGC | -0.0777 ± 0.025
ACGCTAAC | 0.257 ± 0.056
GCGACCGC | 0.087 ± 0.13
GCAAGATA | -0.0355 ± 0.012
CCTGTGGA | -0.0641 ± 0.029
ACCCCGCG | 0.226 ± 0.012

Sequence | PBM E-score of 8-mer
CCCCCAAC | -0.0241 ± 0.11
GTAGCAGA | -0.0907 ± 0.0014
AAGGAAGC | -0.0628 ± 0.053
TAGAACCA | -0.215 ± 0.075
GACGCCAC | 0.114 ± 0.043
ATCGGACC | -0.189 ± 0.0051
ATTTAGAG | -0.17 ± 0.077
AAGCGTTA | 0.187 ± 0.077
CAATTTGC | 0.0919 ± 0.073
GCCCTTCC | -0.151 ± 0.028
AGTGAGTC | -0.0283 ± 0.033
ACCTCAGT | 0.152 ± 0.024
AGCAGTGA | -0.0556 ± 0.013
AGGGTCGA | -0.0873 ± 0.054
CCTCAAAG | -0.0193 ± 0.016
ATGGTGGA | -0.344 ± 0.04
AACTGTCT | 0.102 ± 0.027
CCGTTTAG | 0.0579 ± 0.001
ATATGCAG | 0.0698 ± 0.046
GCTGGTCA | -0.0258 ± 0.028
AGTCTACA | -0.203 ± 0.08
CAACTGTG | 0.231 ± 0.015
AGGGGGCG | 0.164 ± 0.09
AGTTCAAC | -0.021 ± 0.0013
ATACTCAA | -0.194 ± 0.011

Sequence | PBM E-score of 8-mer
CTCCAACA | 0.153 ± 0.0093
CATACGAC | -0.143 ± 0.049
CATTAGGC | 0.00258 ± 0.0073
CATGCCGA | -0.0134 ± 0.033
CTCTATAC | -0.177 ± 0.0022
AGCGCTAA | 0.362 ± 0.02
ACCGTTTA | -0.0705 ± 0.024
AAGTTAAG | -0.234 ± 0.019
ATTAGTGG | 0.026 ± 0.014
TCTAGAAA | -0.0404 ± 0.059
TAATACGA | -0.147 ± 0.047
CAATCCCC | -0.071 ± 0.04
AGACCTAA | -0.0394 ± 0.017
GATATGAC | -0.0509 ± 0.046
GGACTCCC | -0.185 ± 0.003
AAATACAG | -0.102 ± 0.0019
AATGTGGT | 0.0377 ± 0.043
TAACAAGA | 0.0263 ± 0.085
AATAACCC | -0.0826 ± 0.041
CGGACTCA | -0.0531 ± 0.099
ATGCAGTG | -0.0626 ± 0.0092
AATTCGCT | 0.00911 ± 0.0077
AGCGTGAG | 0.24 ± 0.042
AGGGCTTA | -0.238 ± 0.059
ACCTTCCA | 0.0703 ± 0.049

Sequence | PBM E-score of 8-mer
ACGACCTA | 0.0469 ± 0.0017
CGTCACTC | 0.26 ± 0.035
TCACGCAA | 0.23 ± 0.022
AGGGGCTA | -0.0402 ± 0.059
CGTGCCAA | 0.324 ± 0.0048
GAGCTGTA | -0.0747 ± 0.051
CCCTGTTA | 0.14 ± 0.0042
GGCGGCAC | 0.178 ± 0.0052
AGTGGTGG | 0.0989 ± 0.0074
AAATAAAT | -0.1 ± 0.085
CATGTGCG | 0.193 ± 0.035
TATAGATA | -0.21 ± 0.065
CTGGGTCA | -0.182 ± 0.036
ATTCAACG | 0.00787 ± 0.033
ATTGTAAA | -0.0342 ± 0.055
ACCTATAC | 0.0993 ± 0.049
ATGGACTC | -0.231 ± 0.017
ATACTTAG | -0.0881 ± 0.025
GGCCTGCA | -0.241 ± 0.05
AGTTTTCG | 0.0439 ± 0.008
GGGGCAAC | -0.152 ± 0.011
CCCTCATA | 0.0904 ± 0.054
GCATGGGC | 0.075 ± 0.043
ATTTCTGA | -0.0775 ± 0.065
TACCACCA | 0.106 ± 0.0074

Sequence | PBM E-score of 8-mer
CTAAACGC | 0.0238 ± 0.063
AAGCCCCC | -0.289 ± 0.0095
ACCGTAAC | -0.0607 ± 0.0048
AGACTAAC | 0.158 ± 0.012
CGGACCAA | -0.351 ± 0.047
GGGAGTTA | -0.126 ± 0.084
CGGGTCTC | -0.0249 ± 0.063
AACCAGAT | -0.12 ± 0.095
GTTTCTGA | -0.115 ± 0.028
TGCTCGAA | -0.311 ± 0.1
CCCTAAAC | -0.147 ± 0.068
CGCGAGCA | 0.153 ± 0.07
ATAGAATG | -0.183 ± 0.078
ATACTAAT | -0.0663 ± 0.031
GCCATGCC | 0.0291 ± 0.057
GCATTGGA | -0.209 ± 0.011
GAAGGGTA | 0.00266 ± 0.009
CATAATAC | 0.0267 ± 0.045
CAGATATG | -0.0935 ± 0.078
ATTCTAGC | 0.0324 ± 0.064
TCAAAGAA | -0.17 ± 0.033
GTGGGTTA | 0.0414 ± 0.051
AGGCTCAC | -0.0762 ± 0.054
AGCATTTC | 0.00277 ± 0.021
CACTTAAA | 0.158 ± 0.01

Sequence | PBM E-score of 8-mer
CTTCGGAA | -0.201 ± 0.042
GACCCCCC | -0.339 ± 0.087
ATACTTCG | -0.0455 ± 0.0063
TAAAAGCA | -0.0606 ± 0.1
TCTTGGAA | -0.184 ± 0.066
AGGCCACC | -0.157 ± 0.011
AGAATAAT | -0.197 ± 0.12
GATCTTGA | 0.0546 ± 0.058
AAGCGCCG | -0.0564 ± 0.022
CCAACAAC | 0.0262 ± 0.0053
GGACGAAA | -0.0641 ± 0.055
AAAGTTGA | 0.132 ± 0.026
CCTCTACA | -0.0666 ± 0.0084
ATGTTTGG | -0.083 ± 0.1
AATCCTCC | -0.12 ± 0.052
ACGGCTGA | -0.164 ± 0.024
CCTTCTTC | -0.0984 ± 0.033
AGCGACAC | 0.317 ± 0.054
AACTGTCG | 0.272 ± 0.0081
AGCCGACA | 0.165 ± 0.007
CTATCTCC | -0.155 ± 0.013
CGGTGATC | -0.042 ± 0.075
TGAACGCA | -0.234 ± 0.048
AATCTTCG | -0.0794 ± 0.0073
ATAAGCAT | -0.059 ± 0.059

Sequence | PBM E-score of 8-mer
CAGGTGGG | 0.268 ± 0.043
CAAGATAC | -0.0606 ± 0.075
ATGGAAGA | -0.342 ± 0.028
ATGTATAA | -0.0805 ± 0.12
AAGCGATG | -0.00845 ± 0.0036
GGAGATTA | -0.0891 ± 0.063
TGGGCCAA | -0.093 ± 0.046
GAAAACAA | -0.0678 ± 0.067
CATTACGC | 0.0454 ± 0.039
ATGTGGGC | -0.0882 ± 0.093
CGATAGGA | -0.0999 ± 0.11
ACGGACGG | -0.111 ± 0.053
CACAGCTA | 0.2796 ± 0.0012
GCTCCAGA | -0.259 ± 0.031
AATCCCAC | 0.0797 ± 0.054
CGTCGCCC | 0.162 ± 0.026
CCCCAGCC | -0.0201 ± 0.05
CGCACCCC | 0.325 ± 0.019
TTAGCCAA | -0.122 ± 0.032
TAACAGAA | -0.0289 ± 0.036
CGTTCGCA | 0.38 ± 0.037
CCGGGTAG | 0.0105 ± 0.028
CGTAACGA | -0.221 ± 0.054
ACTGCGGC | 0.0302 ± 0.051
GCTGGGAA | 0.05 ± 0.052

Sequence | PBM E-score of 8-mer
ATCTCTCA | 0.226 ± 0.023
TAAGTGTA | 0.217 ± 0.021
CCTTTATC | -0.023 ± 0.017
CTCCCAGC | 0.0766 ± 0.048
TAAGGATA | -0.151 ± 0.01
ATTATTCA | -0.296 ± 0.037
CATTTTGA | -0.186 ± 0.029
CGCTTAAA | 0.131 ± 0.024
CGACCCCG | -0.0978 ± 0.14
AGACTACG | -0.293 ± 0.006
GCATACAC | -0.0288 ± 0.0062
AAATATAG | -0.116 ± 0.11
GAGGCTCA | -0.187 ± 0.026
CAGTGTAC | -0.073 ± 0.034
TAACAATA | 0.132 ± 0.022
ATGGTTGA | 0.0719 ± 0.042
ACGGCCAC | 0.0792 ± 0.025
CACAACTA | 0.189 ± 0.021
CTCACAAA | -0.00988 ± 0.043
CGCGTGGC | 0.103 ± 0.049
AATTCAGG | -0.258 ± 0.046
AATCAATG | -0.0237 ± 0.023
GGTGCTAA | 0.4753 ± 0.00081
AATCTACG | -0.133 ± 0.07
GTGTGAGA | 0.4583 ± 0.0027

Sequence | PBM E-score of 8-mer
AATGTTAG | -0.266 ± 0.027
GCTCCTGA | -0.206 ± 0.08
CACAAGCG | 0.0575 ± 0.0014
GAGAGAAC | 0.0287 ± 0.025
ACTGGAAT | -0.239 ± 0.0024
CGCAGGGC | 0.0745 ± 0.024
CGGAATAG | -0.219 ± 0.012
TATCTTCA | -0.056 ± 0.057
CGGTTGCC | -0.206 ± 0.045
AGAGTGTG | 0.34 ± 0.01
ACAGTTAG | 0.0702 ± 0.027
GACTCGTA | -0.107 ± 0.025
ACACATAG | 0.268 ± 0.022
CACTATGG | 0.12 ± 0.036
CTTTACGC | -0.0839 ± 0.019
CAATCCAG | 0.00948 ± 0.028
AGCGTCAT | 0.134 ± 0.021
CAAAGCGG | -0.1864 ± 0.00049
TCTGACAA | 0.112 ± 0.048
